Assay results taken from article PMC4336329 (PLoS ONE, 2015).
Hit rate of the full screen: of about 310,000 compounds, about 2,200 (0.71%) showed an effect of 50% or more. The effect is printed as a negative number. The list shows a part of the results.

target: human ether-à-go-go-related gene (hERG) potassium channel (human, UniProt Q12809); assay: primary screen, population patch clamp on CHO cells stably expressing hERG
Sequence (Q12809 whole entry, looked up): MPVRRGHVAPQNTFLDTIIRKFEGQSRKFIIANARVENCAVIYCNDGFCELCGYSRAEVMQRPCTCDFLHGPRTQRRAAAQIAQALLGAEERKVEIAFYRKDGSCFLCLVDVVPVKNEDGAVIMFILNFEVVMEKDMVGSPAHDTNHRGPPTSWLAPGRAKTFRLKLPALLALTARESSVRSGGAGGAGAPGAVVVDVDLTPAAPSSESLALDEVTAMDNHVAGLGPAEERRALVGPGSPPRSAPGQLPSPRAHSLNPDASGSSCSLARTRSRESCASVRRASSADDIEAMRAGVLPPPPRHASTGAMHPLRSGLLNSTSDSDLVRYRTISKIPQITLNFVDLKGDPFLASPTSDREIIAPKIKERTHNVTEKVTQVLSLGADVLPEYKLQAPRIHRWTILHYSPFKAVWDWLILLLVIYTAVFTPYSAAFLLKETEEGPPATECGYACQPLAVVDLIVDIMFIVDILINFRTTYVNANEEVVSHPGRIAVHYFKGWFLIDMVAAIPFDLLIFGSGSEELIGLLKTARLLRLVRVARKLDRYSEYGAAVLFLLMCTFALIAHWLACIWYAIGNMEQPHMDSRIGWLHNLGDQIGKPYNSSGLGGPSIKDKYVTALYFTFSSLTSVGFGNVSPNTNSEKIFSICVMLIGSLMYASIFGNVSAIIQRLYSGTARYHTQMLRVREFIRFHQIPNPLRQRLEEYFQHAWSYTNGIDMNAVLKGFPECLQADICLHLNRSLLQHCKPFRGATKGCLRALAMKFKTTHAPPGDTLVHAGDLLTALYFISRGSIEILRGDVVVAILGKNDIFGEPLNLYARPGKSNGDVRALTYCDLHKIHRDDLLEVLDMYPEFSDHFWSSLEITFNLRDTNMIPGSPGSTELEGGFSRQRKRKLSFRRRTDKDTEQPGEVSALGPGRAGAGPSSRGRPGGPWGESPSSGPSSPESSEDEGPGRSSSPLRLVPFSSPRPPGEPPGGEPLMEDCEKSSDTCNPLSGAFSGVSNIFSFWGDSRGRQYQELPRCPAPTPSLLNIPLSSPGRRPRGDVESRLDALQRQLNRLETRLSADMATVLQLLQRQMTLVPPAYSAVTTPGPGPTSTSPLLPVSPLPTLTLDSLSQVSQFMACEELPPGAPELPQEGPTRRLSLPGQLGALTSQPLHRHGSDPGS

Q: Which “hERG current change (%, negative = inhibition) at 1uM” value does the source give for O=C(Nc1ccc(F)cc1)Nc1ccc(NC(=O)c2ccccc2O)cc1 here?
A: 12.5%

Q: Which “hERG current change (%, negative = inhibition) at 1uM” value does the source give for CCC(=O)N(Cc1cc2ccccc2[nH]c1=O)c1ccc(OC)cc1 here?
A: 1.87%

Q: With C1=C(CCNc2nnnn2-c2ccccc2)CCCC1 as the compound, how does the “hERG current change (%, negative = inhibition) at 1uM” value read?
A: 6.46%

Q: COc1ccc(NC(=O)c2c(-c3c(Cl)cccc3Cl)noc2C)cn1 was tested. Which “hERG current change (%, negative = inhibition) at 1uM” value did it give?
A: 2.57%

Q: Which “hERG current change (%, negative = inhibition) at 1uM” value does the source give for CN(CC(=O)Nc1nc2ccccc2s1)S(=O)(=O)c1ccc(Br)cc1 here?
A: -5.56%

Q: O=C1CC(c2ccccc2)Cc2nc(N3CCc4ccccc4C3)ncc21 (centres unmarked) was tested. Which “hERG current change (%, negative = inhibition) at 1uM” value did it give?
A: 6.07%

Q: O=C(NC1CONC1=O)OCC(Cl)(Cl)Cl (centres unmarked) was tested. Which “hERG current change (%, negative = inhibition) at 1uM” value did it give?
A: 14.3%

Q: Which “hERG current change (%, negative = inhibition) at 1uM” value does the source give for CCN1C(=O)[C@H]2[C@@H](c3ccc(C)cc3)N3C(=O)N(c4ccccc4)C(=O)[C@@]3(Cc3ccc(Cl)cc3)[C@H]2C1=O here?
A: 3.47%

Q: COc1ccc2[nH]cc(CCN3C(=O)c4ccc(C(=O)O)cc4C3=O)c2c1 was tested. Which “hERG current change (%, negative = inhibition) at 1uM” value did it give?
A: 14.1%

Q: CCN(CC)CCNC(=O)C1CCN(S(=O)(=O)N2CCCCC2)CC1 was tested. Which “hERG current change (%, negative = inhibition) at 1uM” value did it give?
A: 4.23%

Q: C=CCNC(=O)NC(=O)COC(=O)/C(C#N)=C/c1cc(C)n(CC(C)C)c1C was tested. Which “hERG current change (%, negative = inhibition) at 1uM” value did it give?
A: -4.08%

Q: For Cc1nnc(SCc2nc3scc(-c4ccccc4)c3c(=O)[nH]2)s1, which “hERG current change (%, negative = inhibition) at 1uM” value is on record?
A: 9.19%

Q: With CCOC(=O)Cc1csc(NC(=O)Cc2ccc(Cl)cc2)n1 as the compound, how does the “hERG current change (%, negative = inhibition) at 1uM” value read?
A: 4.82%

Q: With O=C(COC(=O)c1ccccc1)NCCC1=CCCCC1 as the compound, how does the “hERG current change (%, negative = inhibition) at 1uM” value read?
A: 9.18%

Q: For Cc1ccc(C(=O)Nc2ccc(-c3csc(C)n3)cc2)cc1, which “hERG current change (%, negative = inhibition) at 1uM” value is on record?
A: 9.75%

Q: How did the “hERG current change (%, negative = inhibition) at 1uM” value turn out when COc1ccc(S(=O)(=O)Nc2ccccc2N2CCOCC2)cc1OC was run?
A: 13.1%

Q: Which “hERG current change (%, negative = inhibition) at 1uM” value does the source give for Cc1cc(C)c(S(=O)(=O)N(C)CC(=O)NCc2ccncc2)c(C)c1 here?
A: 5.74%

Q: CC(=O)c1cn(C)c(=O)[nH]c1=O was tested. Which “hERG current change (%, negative = inhibition) at 1uM” value did it give?
A: 14.4%

Q: How did the “hERG current change (%, negative = inhibition) at 1uM” value turn out when CCOC(=O)N1CCN(Cc2cn[nH]c2-c2ccc(-c3ccccc3)cc2)CC1 was run?
A: 7.03%

Q: Which “hERG current change (%, negative = inhibition) at 1uM” value does the source give for CCc1nnc(NC(=O)CSc2nnc(-c3cc4ccccc4cc3O)n2CCOC)s1 here?
A: 2.7%

Q: For Cc1cccc(Cc2c(C)nc3c(C(=O)NCc4ccco4)cnn3c2C)c1, which “hERG current change (%, negative = inhibition) at 1uM” value is on record?
A: -7.73%

Q: For Cc1cccc(NC(=O)c2ccc3c(c2)CCN3S(C)(=O)=O)c1C, which “hERG current change (%, negative = inhibition) at 1uM” value is on record?
A: 18.4%

Q: CN1CCN(C(=O)CSc2nc(-c3ccncc3)ccc2C#N)CC1 was tested. Which “hERG current change (%, negative = inhibition) at 1uM” value did it give?
A: -3.13%

Q: How did the “hERG current change (%, negative = inhibition) at 1uM” value turn out when O=C(CSc1ncccn1)NC(=O)NCc1ccccc1 was run?
A: 24.7%

Q: O=C(NCCc1ccccc1)C1CCCN(S(=O)(=O)c2cccnc2)C1 (centres unmarked) was tested. Which “hERG current change (%, negative = inhibition) at 1uM” value did it give?
A: 9.82%

Q: How did the “hERG current change (%, negative = inhibition) at 1uM” value turn out when COC(=O)C1=C(C)N(C)C(=O)NC1c1c(O)ccc2ccccc12 (centres unmarked) was run?
A: 6.78%

Q: With Cc1noc(C)c1S(=O)(=O)N1CCC(C(=O)NC2CCCc3ccccc32)CC1 (centres unmarked) as the compound, how does the “hERG current change (%, negative = inhibition) at 1uM” value read?
A: 9.97%

Q: For O=C(CNC(=O)c1ccccc1F)Nc1ccccc1C(F)(F)F, which “hERG current change (%, negative = inhibition) at 1uM” value is on record?
A: 11.8%

Q: For CCn1c(SCC(=O)Nc2nncs2)nnc1C(C)NC(=O)c1ccccc1Br (centres unmarked), which “hERG current change (%, negative = inhibition) at 1uM” value is on record?
A: 19.3%

Q: For Cc1cc(NCCCN2CCOCC2)n2c(nc3ccccc32)c1C#N, which “hERG current change (%, negative = inhibition) at 1uM” value is on record?
A: -0.298%

Q: With O=C(NCCCN1CCCC1=O)c1ccc(CNS(=O)(=O)c2ccc(F)cc2)cc1 as the compound, how does the “hERG current change (%, negative = inhibition) at 1uM” value read?
A: 2.82%

Q: Which “hERG current change (%, negative = inhibition) at 1uM” value does the source give for COc1ccc(OC)c(-c2nc3cc4ccccc4cc3nc2-c2ccccc2)c1 here?
A: 7.79%

Q: Which “hERG current change (%, negative = inhibition) at 1uM” value does the source give for O=C(O)C1=C[C@@H](C2CC2)C[C@@H](OCCCCO)O1 here?
A: 10.7%

Q: How did the “hERG current change (%, negative = inhibition) at 1uM” value turn out when C=CCn1c(O)c(C(CC)=Nc2ccc(N(CC)CC)cc2)c(=O)[nH]c1=O was run?
A: 9.31%

Q: How did the “hERG current change (%, negative = inhibition) at 1uM” value turn out when O=C(NCCCn1ccnc1)c1cccc(Br)c1 was run?
A: 6.56%

Q: COP(=O)(OC)C(NC(=O)Nc1ccccc1)c1ccccc1 (centres unmarked) was tested. Which “hERG current change (%, negative = inhibition) at 1uM” value did it give?
A: 5.35%

Q: Which “hERG current change (%, negative = inhibition) at 1uM” value does the source give for Cc1ccc(Nc2nnc(SCn3nnc4ccccc4c3=O)s2)cc1 here?
A: 7.8%

Q: With CC1Cc2ccccc2N1C(=O)CSc1ncccn1 (centres unmarked) as the compound, how does the “hERG current change (%, negative = inhibition) at 1uM” value read?
A: 11%

Q: With CC1C(=O)C(C)(C)C(=O)OC1c1ccc([N+](=O)[O-])cc1 (centres unmarked) as the compound, how does the “hERG current change (%, negative = inhibition) at 1uM” value read?
A: 9.08%

Q: COC(=O)c1sc(C(F)(F)F)c(-c2ccccc2)c1S(=O)(=O)N(C)C was tested. Which “hERG current change (%, negative = inhibition) at 1uM” value did it give?
A: 10.7%

Q: With COc1ccc(N(CC(=O)Nc2ccc(C)cc2)S(=O)(=O)c2c(C)noc2C)cc1 as the compound, how does the “hERG current change (%, negative = inhibition) at 1uM” value read?
A: 15.5%

Q: For O=C(NNc1nc(N2CCOCC2)nc(N2CCOCC2)n1)Nc1ccc(Cl)cc1, which “hERG current change (%, negative = inhibition) at 1uM” value is on record?
A: 9.69%

Q: For Cc1cc(C)nc(SCc2ccc(C(=O)N/N=C/c3ccncc3)cc2)n1, which “hERG current change (%, negative = inhibition) at 1uM” value is on record?
A: 3.7%

Q: How did the “hERG current change (%, negative = inhibition) at 1uM” value turn out when O=Cc1ccc(OC(=O)Cc2ccc(F)cc2)cc1 was run?
A: 12.4%
